# In PubChem BioAssay (NCATS):
# Values joined by “and” are separate entries in the source; they are usually repeats but may differ in a detail not shown here. Identical values can stand only once. The inconclusive results got no clear call from the source; some entries with a clear call stand among them for comparison. For some assays here: A potency beside an inconclusive call is a rough fit, not a confirmed value. Active and inactive are the calls of the source. The call rests on the fitted dose curve; in most records, active means well fitted curve in the direction sought with a large enough effect; inconclusive means small, poorly fitted or top-dose-only effect, or another doubt; inactive means no such curve, though single readings can be large; an effect the other way counts as inactive or inconclusive.
# Experiments:
# [1] = Vero-766 cells viability qHTS against the NCATS CANVASS Library: Counterscreen for Zika virus inhibition assay (AID 1347394); settings: Vero 766 viability, CellTiter-Glo luminescence, 72 h; at 91.4 µM (top of the series); further: on the % scale 0 is the no-effect control and ±100 the full control effect; nearly all actives have a fitted effect of over 60% in size
# Summary of the method: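 Vero 766, no virus; 1000 cells/well; o/n attach; cpd 11-pt; 72 h, 37C, 5% CO2; CTG luminescence; cell-free media wells = 100% inhibition.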
# [2] = Viability qHTS for inhibitors of the SERCaMP assay screened against the NCATS CANVASS Library (AID 1347400); settings: SH-SY5Y SERCaMP cells viability, CellTiter-Glo, 48 h; at 92.2 µM (top of the series); further: on the % scale 0 is the no-effect control and ±100 the full control effect; nearly all actives have a fitted effect of over 70% in size
# Summary of the method: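 Seed SH-SY5Y-GLuc SERCaMP MJH297 cells at 1000 per well, incubate 4 h, add compounds across an 11-point range, incubate 48 h at 37C, then add CellTiter-Glo and read luminescence.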
# [3] = biological target: Protein phosphatase 1D (Homo sapiens) (UniProt O15297); assay: RapidFire Mass Spectrometry qHTS Assay for Modulators of WT P53-Induced Phosphatase 1 (WIP1) (AID 1347424); settings: WIP1 dephosphorylation of phosphopeptide, RapidFire MS; series mostly up to 63 µM; further: potency means the concentration at half of the fitted maximal effect;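 on activity change, negative = inhibition: plate controls were DMSO wells for no effect and GSK830371 inhibitor control at 10 µM for full effect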
# Chain of UniProt O15297 (O15297 whole entry, looked up): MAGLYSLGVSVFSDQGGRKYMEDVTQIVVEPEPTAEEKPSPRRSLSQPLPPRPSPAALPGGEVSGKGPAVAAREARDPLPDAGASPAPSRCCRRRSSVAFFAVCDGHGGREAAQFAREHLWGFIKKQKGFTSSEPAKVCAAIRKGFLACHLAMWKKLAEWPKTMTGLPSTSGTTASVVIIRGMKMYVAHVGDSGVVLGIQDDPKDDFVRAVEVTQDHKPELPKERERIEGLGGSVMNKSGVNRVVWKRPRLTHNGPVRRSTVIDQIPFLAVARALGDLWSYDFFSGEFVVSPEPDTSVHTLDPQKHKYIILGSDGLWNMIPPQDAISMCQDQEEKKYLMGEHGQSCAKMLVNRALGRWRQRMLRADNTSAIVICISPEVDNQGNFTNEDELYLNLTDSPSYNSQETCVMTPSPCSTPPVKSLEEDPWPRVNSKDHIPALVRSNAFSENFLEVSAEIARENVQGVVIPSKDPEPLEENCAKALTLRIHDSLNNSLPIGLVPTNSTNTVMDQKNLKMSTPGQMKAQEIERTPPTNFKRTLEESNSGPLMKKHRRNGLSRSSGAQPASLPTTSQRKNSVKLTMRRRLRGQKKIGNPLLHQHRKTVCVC
# Summary of the method: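 RapidFire MS readout of dephosphorylated VEPPL-S-QETFS product, with 1 uM isotope-labelled peptide standard. Reaction: 10 nM WIP1, 2 uM phosphopeptide substrate, 5 min, room temperature, after 1 h compound preincubation; stopped with 0.5% formic acid.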
# [4] = Validation qHTS assay for inhibitors of Activation Induced Cytidine Deaminase (AID): UDG Counterscreen signal (AID 1347427); settings: biochemical UDG counterscreen, fluorescence signal; further: potency means the concentration at half of the fitted maximal effect
# Summary of the method: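 Fluorescence at 560 nm excitation, 665 nm emission reports UDG signal after 250 mM NaOH (2x) addition and 30 min. Enzymes (AID 1 uM, UDG 2 U/mL, at 4/3x) preincubated 10 min with compound, then 4 h with 4x 250 nM DJC20/DJC23 substrate at room temperature.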
# [5] = qHTS to identify inhibitors of the type 1 interferon - major histocompatibility complex class I in skeletal muscle: primary screen against the NCATS Pharmaceutical Collection (AID 1347407); settings: human skeletal muscle cells, IFN-b-induced MHC-I HiBiT luminescence, 24 h; activity change, negative = inhibition: at 45.9 µM (top of the series) unless noted;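 further: luminescence of HiBiT knocked into endogenous HLA-B as interferon-induced MHC class I level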; further: potency means the concentration at half of the fitted maximal effect; on activity change, negative = inhibition: on the % scale 0 is the no-effect control and ±100 the full control effect
# Summary of the method: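 Luminescence from HiBiT-tagged endogenous HLA-B*08:01 served as the read-out of IFN-beta-induced MHC class I in CRISPR-engineered C25cl48 myoblasts. Cells received 4 ng/ml IFN-beta plus compound (high final 46 uM, […]) for 24 h.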
# [6] = biological target: Protein phosphatase 1D (Homo sapiens) (UniProt O15297); assay: Rhodamine-PBP qHTS Assay for Modulators of WT P53-Induced Phosphatase 1 (WIP1) (AID 1347425); settings: recombinant WIP1, Rhodamine-PBP phosphate fluorescence, real-time; series mostly up to 57.5 µM; further: potency means the concentration at half of the fitted maximal effect
# Summary of the method: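 Read-out: Rhodamine-PBP fluorescence (ex 525/em 598 nm) for released Pi, read each minute for 11 min after adding 10 uM VEPPL-pS-QETFS; signal taken as f1 minus pre-substrate f0. Enzyme 5 nM WIP1 with 1 hr room-temperature compound preincubation.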
# [7] = qHTS to identify inhibitors of the type 1 interferon - major histocompatibility complex class I in skeletal muscle: primary screen against the NCATS Mechanism Interrogation Plate v5.0 (MIPE) Libary (AID 1347411); settings: iHSKM cells + IFN-b, HiBiT-tagged MHC-I luminescence, 24 h; activity change, negative = inhibition: at 45.8 µM (top of the series); further: nearly all actives have a fitted effect of over 65% in size; further: potency means the concentration at half of the fitted maximal effect;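 on activity change, negative = inhibition: plate controls were vehicle for no effect and reference inhibitor for full effect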
# Summary of the method: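 Seed engineered human myoblasts (HLA-B HiBit) in medium without dexamethasone containing 4 ng/ml IFN-beta; after 1 hr add compound titrations (top 46 uM final). Incubate 24 hrs at 37 C, lyse 10 min with HiBiT reagent, read luminescence.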
# Tags describe the fitted curve by direction and shape.
compound,measurement,setting,value
C/C=C1/CN2CC[C@]34C(=Nc5ccccc53)[C@@H]2C[C@@H]1[C@H]4C(=O)OC,"activity change, negative = cytotoxic",[1],inactive: -4.81%
NCCc1ccc(O)cc1,"activity change, negative = cytotoxic",[1],inactive: -39.4%
CN(C)CCc1c[nH]c2ccccc12,"activity change, negative = cytotoxicity",[2],inactive: -12.2%
C[C@@H]1O[C@@H](O[C@H]2C[C@@H](O)[C@]3(CO)[C@H]4[C@H](O)C[C@]5(C)[C@@H](C6=CC(=O)OC6)CC[C@]5(O)[C@@H]4CC[C@]3(O)C2)[C@H](O)[C@H](O)[C@H]1O,Potency,[3],inactive
COc1ccc2c(c[n+](C)c3c4cc5c(cc4ccc23)OCO5)c1OC,Potency,[4],"inconclusive: 50.1 µM [inhibitor, partial curve]"
Nc1ccccc1C(=O)O,Potency,[5],inactive
C[C@]12CC[C@H]3[C@@H](CCC4=CC(=O)CC[C@@H]43)[C@@H]1CC[C@@H]2OC(=O)CCc1ccco1,Potency,[5],"inconclusive: 41.9 µM [inhibitor, single point]"
same,Potency,[3],inactive
same,Potency,[6],"inconclusive: 17.8 µM [inhibitor, single point]"
COc1cccc2c1C(=O)c1c(O)c3c(c(O)c1C2=O)C[C@@](O)(C(=O)CO)CC3OC1CC(N2CCOC(OC)C2)C(O)C(C)O1 (some centres not stated),Potency,[5],active: 2.97 µM
C[C@H]1O[C@@H](O[C@H]2[C@@H](O)C[C@H](O[C@H]3[C@@H](O)C[C@H](O[C@H]4CC[C@@]5(C)[C@H](CC[C@@H]6[C@@H]5CC[C@]5(C)[C@@H](C7=CC(=O)OC7)CC[C@]65O)C4)O[C@@H]3C)O[C@@H]2C)C[C@H](O)[C@@H]1O,Potency,[5],active: 0.0264 µM
CCC(=O)C(CCN(C)C)(c1ccccc1)c1ccccc1,Potency,[5],inactive
Oc1ccc2[nH]cc(CCCCN3CC=C(c4ccccc4)CC3)c2c1,Potency,[5],"inconclusive: 33.3 µM [inhibitor, single point]"
CCC(=O)O[C@H]1CC[C@H]2[C@@H]3CCC4=CC(=O)CC[C@]4(C)[C@H]3CC[C@]12C,Potency,[5],"inconclusive: 41.9 µM [inhibitor, single point]"
CO[C@]12CC[C@@]3(C[C@@H]1[C@](C)(O)C(C)(C)C)[C@@H]1Cc4ccc(O)c5c4[C@@]3(CCN1CC1CC1)[C@H]2O5,Potency,[5],active: 48.1 µM
CO/C=C(/C(=O)OC)c1ccccc1Oc1cc(Oc2ccccc2C#N)ncn1,Potency,[5],"inconclusive: 27 µM [inhibitor, partial curve]"
CCCCCCCCCCCCCCCC[N+](C)(C)C,Potency,[5],"inconclusive: 29.7 µM [inhibitor, single point]"
C[C@H](N)[C@H](O)c1ccc(O)c(O)c1,Potency,[5],"inconclusive: 14.9 µM [inhibitor, partial curve, poor fit]"
same,Potency,[3],active: 2 µM
C[C@@H]1O[C@@H](O[C@@H]2C=C3CC[C@@H]4[C@H](CC[C@]5(C)[C@@H](c6ccc(=O)oc6)CC[C@]45O)[C@@]3(C)CC2)[C@H](O)[C@H](O)[C@H]1O,Potency,[5],active: 0.0033 µM
same,Potency,[7],active: 0.0074 µM
CCCC1CCCCN1 (configuration not stated),Potency,[5],inactive
C=C1CC[C@@]2(O)[C@H]3Cc4ccc(O)c5c4[C@@]2(CCN3CC2CC2)[C@H]1O5,Potency,[5],inactive
C[C@]12CC[C@H]3[C@@H](CC[C@@]45O[C@H]4C(O)=C(C#N)C[C@]35C)[C@H]1CC[C@H]2O,Potency,[5],active: 11.8 µM
C[C@]12CC[C@H]3[C@@H](CCC4=CC(=O)CC[C@@H]43)[C@@H]1CC[C@@H]2O,Potency,[5],"inconclusive: 9.38 µM [inhibitor, partial curve]"
CCCCCCCCCC(CC)c1ccc(S(=O)(=O)O)cc1 (configuration not stated),Potency,[5],"inconclusive: 42.8 µM [inhibitor, partial curve]"
same,Potency,[3],active: 1 µM
same,Potency,[6],"inconclusive: 3.16 µM [inhibitor, full curve, poor fit]"
CCCN(CCC)c1c([N+](=O)[O-])cc(S(N)(=O)=O)cc1[N+](=O)[O-],Potency,[5],"inconclusive: 48.1 µM [inhibitor, partial curve, poor fit]"
same,Potency,[3],"inconclusive: 100 µM [inhibitor, single point]"
same,Potency,[6],"inconclusive: 39.8 µM [inhibitor, partial curve, poor fit]"
C[C@]12CCC(=O)C=C1CC[C@@H]1[C@@H]2CC[C@@]2(C)[C@H]1CC[C@]2(C)O,Potency,[5],inactive
same,Potency,[3],inactive
O=c1c(C2CC(c3ccc(-c4ccc(Br)cc4)cc3)Cc3ccccc32)c(O)sc2ccccc12 (configuration not stated),Potency,[5],"inconclusive: 26.4 µM [inhibitor, single point]"
same,Potency,[3],"inconclusive: 10 µM [inhibitor, partial curve]"
same,Potency,[6],"inconclusive: 2.82 µM [inhibitor, full curve, poor fit]"
C[C@@H]1C[C@@H]([C@H](O)CC2CC(=O)NC(=O)C2)C(=O)[C@@H](C)C1,Potency,[5],active: 0.374 µM
O=c1oc2ccccc2c(O)c1Cc1c(O)c2ccccc2oc1=O,Potency,[5],"inconclusive: 26.4 µM [inhibitor, single point]"
same,Potency,[3],"inconclusive: 15.8 µM [inhibitor, partial curve]"
same,Potency,[6],"inconclusive: 15.8 µM [inhibitor, partial curve, poor fit]"
Clc1ccc(COC(Cn2ccnc2)c2ccc(Cl)cc2Cl)cc1 (configuration not stated),Potency,[5],"inconclusive: 23.6 µM [inhibitor, single point]"
C[C@]12Cc3nonc3C[C@@H]1CC[C@@H]1[C@@H]2CC[C@@]2(C)[C@H]1CC[C@]2(C)O,Potency,[5],"inconclusive: 23.6 µM [inhibitor, single point]"
Nc1ccc(Cl)cc1N,Potency,[5],"inconclusive: 53.9 µM [inhibitor, single point]"
same,Potency,[3],"inconclusive: 56.2 µM [inhibitor, partial curve, poor fit]"
O=C(CBr)Nc1ccc(Cl)cc1C(=O)c1ccccc1F,Potency,[5],inactive
CCCCCCCCCCCC[N+](C)(C)CCOc1ccccc1,Potency,[5],"inconclusive: 21 µM [inhibitor, single point]"
CCC1(c2ccccc2)CCC(=O)NC1=O (configuration not stated),Potency,[5],inactive
CCOP(=S)(OCC)O/N=C(\C#N)c1ccccc1,Potency,[5],"inconclusive: 4.7 µM [inhibitor, partial curve]"
C#C[C@]1(O)C=C[C@H]2[C@@H]3CCC4=CC(=O)CC[C@@H]4[C@H]3CC[C@@]21CC,Potency,[5],"inconclusive: 26.4 µM [inhibitor, single point]"
same,Potency,[7],"inconclusive: 37 µM [inhibitor, single point]"
Oc1ccc(Cl)cc1Cc1ccccc1,Potency,[5],"inconclusive: 34.7 µM [inhibitor, single point]"
same,Potency,[3],"inconclusive: 31.6 µM [inhibitor, single point]"
same,Potency,[6],"inconclusive: 25.1 µM [inhibitor, partial curve, poor fit] and inconclusive: 14.1 µM [inhibitor, partial curve, poor fit]"
CC(NC(C)(C)C)C(=O)c1cccc(Cl)c1 (configuration not stated),Potency,[5],inactive
same,Potency,[7],inactive
Cc1ccc([N+](=O)[O-])[c]2c1[O][Hg]2,Potency,[5],active: 11.8 µM
same,Potency,[3],active: 3.98 µM
same,Potency,[6],"inconclusive: 10 µM [inhibitor, partial curve, poor fit]"
O=C(O)c1nn(Cc2ccc(Cl)cc2Cl)c2ccccc12,Potency,[6],"inconclusive: 20 µM [inhibitor, partial curve, poor fit]"
CN(C)[C@@H]1C(=O)C(C(N)=O)=C(O)[C@@]2(O)C(=O)C3=C(O)c4c(O)cccc4[C@@](C)(O)[C@H]3C[C@@H]12,Potency,[6],"inconclusive: 3.98 µM [inhibitor, full curve, poor fit]"
CN1CC[C@@]2(C)c3cc(O)ccc3N(C)C12 (some centres not stated),Potency,[4],"inconclusive: 14.1 µM [inhibitor, partial curve, poor fit]"
CN(N=O)c1ccc(O)c(O)c1,Potency,[4],"inconclusive: 56.2 µM [inhibitor, partial curve]"
